These results are taken from PubChem BioAssay AID1745853 (National Center for Advancing Translational Sciences (NCATS), 2022).

Molecules are shown by their SMILES. This is one part of the list. These are further read-outs of the screen, such as a control signal, another cell line or another target. No call is given for them.

Test in all cases: Primary Screen for Target Class Profiling of Small Molecule Inhibitors of Methyltransferases
The target of experiment [1] is Glycine N-methyltransferase (Homo sapiens) (UniProt Q14749). The note with it: purified enzyme, MTase-Glo SAH luminescence; measured here: GNMT inhibition; at 40 µM; stronger effect = lower value. In a few lines: (§1)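 Each enzyme was assayed with SAM and its substrate. SAH formation detected by MTase-Glo luminescence; single-point 40 uM screen[…].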
Experiment [2] deals with Guanidinoacetate N-methyltransferase (Homo sapiens) (UniProt Q14353). Conditions: purified enzyme, MTase-Glo SAH luminescence; measured here: GAMT inhibition; at 40 µM; stronger effect = lower value. In outline:
as §1

Experiment [3] has as its target Histamine N-methyltransferase (Homo sapiens) (UniProt P50135). Conditions: purified enzyme, MTase-Glo SAH luminescence; measured here: HNMT inhibition; at 40 µM; stronger effect = lower value. In outline: as §1
Experiment [4] concerns the target Nicotinamide N-methyltransferase (Homo sapiens) (UniProt P40261). Conditions: purified enzyme, MTase-Glo SAH luminescence; measured here: NNMT inhibition; at 40 µM; stronger effect = lower value. In a few lines: as §1
Experiment [5] deals with Phenylethanolamine N-methyltransferase (Homo sapiens) (UniProt P11086). The note with it: purified enzyme, MTase-Glo SAH luminescence; measured here: PNMT inhibition; at 40 µM; stronger effect = lower value. In a few lines: as §1
% is set by controls: 0 for no effect and ±100 for the full control effect.

For the molecule `O=S(=O)(Nc1cccc2ccccc12)c1ccc2[nH]c3c(c2c1)CCCC3`, the activity change, negative = inhibition in experiment [1] was 0.689%; in experiment [2], 4.84%; in experiment [3] it was -2.31%; in experiment [4], -10.5%; in experiment [5], -1.92%.

For the molecule `C=Cc1c(C)c2cc3[nH]c(cc4nc(cc5nc(cc1[nH]2)C(C)=C5CCC(=O)O)C(CCC(=O)O)=C4C)c(C)c3C=C`, the activity change, negative = inhibition is -9.69% in experiment [1]; 8.49% in experiment [2]; 7.58% in experiment [3]; -9.78% in experiment [4]; -8.37% in experiment [5].

`CCc1nnc([C@@H]2CC(F)(F)CN2C(=O)CCn2cccn2)o1`: the activity change, negative = inhibition in experiment [1] was -2.4%; in experiment [2], -0.488%; in experiment [3], 0.781%; in experiment [4], -6.53%; in experiment [5], 12.3%.

Regarding `CC(C)Cn1c(=O)c2ccccc2n2c(CCC(=O)NCCC3=CCCCC3)nnc12`, the activity change, negative = inhibition was -6.33% in experiment [1]; 15.3% in experiment [2]; 4.56% in experiment [3]; -9.62% in experiment [4]; -1.08% in experiment [5].

Turning to `O=C1NC(Cc2ccccc2)C(=O)N2CCCC12` (stereo not given), the activity change, negative = inhibition is -2.12% in experiment [1]; 0.919% in experiment [2]; 3.32% in experiment [3]; -10.7% in experiment [4]; 4.22% in experiment [5].

For `COC(=O)C1=CO[C@@H](O[C@@H]2O[C@H](CO)[C@@H](O)[C@H](O)[C@H]2O)[C@H]2[C@@H]1CC(OC)O[C@@H]2C` (stereo not given in full), the activity change, negative = inhibition was 1.47% in experiment [1]; -0.597% in experiment [2]; 5.06% in experiment [3]; -9.41% in experiment [4]; -7.48% in experiment [5].

Consider `Cc1ccc(O)c(N=Nc2ccccc2)n1`, for which the activity change, negative = inhibition in experiment [1] was -90.1%; in experiment [2], -81.4%; in experiment [3], -84.3%; in experiment [4], -83.2%; in experiment [5], -84.3%.

`COc1cccc(C(=O)N2CCN(c3ccnc4ccnn34)CC2)c1`: the activity change, negative = inhibition is -11% in experiment [1]; -5.95% in experiment [2]; -4.79% in experiment [3]; -17.4% in experiment [4]; -5.79% in experiment [5].

Turning to `OCC1=CC[C@@H]2C=CO[C@@H](O[C@@H]3O[C@H](CO)[C@@H](O)[C@H](O)[C@H]3O)[C@H]12`, the activity change, negative = inhibition in experiment [1] was 0.789%; in experiment [2] it was -2.8%; in experiment [3] it was 5.23%; in experiment [4], -13.8%; in experiment [5], 2.25%.

Consider `Cc1cnc(-c2ccncc2)n1C1CCN(S(=O)(=O)c2ccc3c(c2)OCCO3)CC1`, for which the activity change, negative = inhibition in experiment [1] is -0.016%; in experiment [2] it was 0%; in experiment [3] it was 9.52%; in experiment [4], -6.37%; in experiment [5], 3.16%.

Consider `C[C@]1(OC(=O)/C=C/c2ccccc2)C[C@@H](O)[C@]2(O)C=CO[C@@H](O[C@@H]3O[C@H](CO)[C@@H](O)[C@H](O)[C@H]3O)[C@@H]21`, for which the activity change, negative = inhibition in experiment [1] was 3.27%; in experiment [2], 3.35%; in experiment [3], 7.71%; in experiment [4], -8%; in experiment [5] it was -0.885%.

For `CCc1cc2c(cc3n2CC(C)(C(=O)NC2CCCCC2)N(Cc2cccc(F)c2)C3=O)s1` (stereo not given), the activity change, negative = inhibition in experiment [1] turned out to be 1.55%; in experiment [2], 0%; in experiment [3] it was 1.81%; in experiment [4] it was 9.64%; in experiment [5], 0.164%.

As for `COCc1cc(NCCCNc2cccnc2)ncn1`, the activity change, negative = inhibition in experiment [1] was -58.7%; in experiment [2] it was -42.4%; in experiment [3], -11.1%; in experiment [4] it was -9.5%; in experiment [5] it was -27.5%.

With `O=[S+]([O-])(c1ccncc1)c1nnn2c1nc(NCc1ccncc1)c1ccccc12`, the activity change, negative = inhibition in experiment [1] is -4.26%; in experiment [2] it was -1.76%; in experiment [3], -1.58%; in experiment [4] it was -4.39%; in experiment [5], 2.43%.

For the molecule `CC(=O)OC1CC2(C)C(CCC(C)C23Cc2c(O)cc4c(c2O3)CNC4=O)C(C)(C)C1O` (stereo not given), the activity change, negative = inhibition in experiment [1] is 4.91%; in experiment [2] it was 6.06%; in experiment [3], 9.78%; in experiment [4] it was -9.47%; in experiment [5] it was -1.76%.

`CCN1CCC[C@@H]1CNC(=O)c1ccc2c(c1)NC(=O)/C(=C/c1ccccc1F)S2`: the activity change, negative = inhibition in experiment [1] was -35.6%; in experiment [2], -14.9%; in experiment [3], -57.5%; in experiment [4] it was -35.4%; in experiment [5] it was -6.6%.

`Cc1ccccc1-c1cc(N2CCN(C)CC2)ncc1N(C)C(=O)C(C)(C)c1cc(C(F)(F)F)cc(C(F)(F)F)c1`: the activity change, negative = inhibition in experiment [1] was 1.18%; in experiment [2], 9.8%; in experiment [3], 9.54%; in experiment [4] it was -13.8%; in experiment [5], 4.95%.

As to `CCOc1ccc(C(=O)Cn2nc3n(C)c(=O)c4ccc(C(=O)NC(C)CC)cc4n3c2=O)cc1` (stereo not given), the activity change, negative = inhibition in experiment [1] came out at 8.19%; in experiment [2] it was 2.01%; in experiment [3] it was 13.2%; in experiment [4], 5.48%; in experiment [5] it was 9.82%.

In the case of `CCCn1c(=O)c2ccc(C(=O)NC(C)C)cc2n2c(SCC(=O)NC3CCCC3)nnc12`, the activity change, negative = inhibition was 1.01% in experiment [1]; -3.49% in experiment [2]; 4.59% in experiment [3]; -6.56% in experiment [4]; -2.24% in experiment [5].

Regarding `CC(=O)N1CC2(CCCCN2CC2CC2)Cc2ccccc21` (stereo not given), the activity change, negative = inhibition in experiment [1] is -2.29%; in experiment [2], 2.6%; in experiment [3], -5.2%; in experiment [4], -5.22%; in experiment [5], 0.868%.

For `COc1ccc(N2CCN(C(=O)CCc3nnc4n(CCCOC(C)C)c(=O)c5ccccc5n34)CC2)cc1`, the activity change, negative = inhibition was -0.996% in experiment [1]; 4.24% in experiment [2]; 1.72% in experiment [3]; -0.876% in experiment [4]; 0.311% in experiment [5].

Turning to `CCCN1C(=O)c2ccc(-c3ccccc3)n2CC1(C)C(=O)NC1CCCCCC1` (stereo not given), the activity change, negative = inhibition in experiment [1] was -3.38%; in experiment [2], 0%; in experiment [3] it was -2.89%; in experiment [4] it was -2.43%; in experiment [5], -0.897%.

For `O=C(NCc1cccnc1)c1nc(-c2ccc(Cl)cc2)c2ccccn12`, the activity change, negative = inhibition was -7.13% in experiment [1]; -6.43% in experiment [2]; -3.4% in experiment [3]; -20.3% in experiment [4]; -8.45% in experiment [5].

As to `Cc1nnc2n1CCC(N(C)C(=O)CCc1ccccc1)CC2` (stereo not given), the activity change, negative = inhibition is 0.717% in experiment [1]; -0.087% in experiment [2]; 0.656% in experiment [3]; -2.07% in experiment [4]; -7.73% in experiment [5].

Regarding `CCc1cccc(NC(=O)Cn2nc3n(C(C)C)c(=O)c4ccc(C(=O)NC(C)CC)cc4n3c2=O)c1` (stereo not given), the activity change, negative = inhibition is 1.49% in experiment [1]; 0% in experiment [2]; -3.12% in experiment [3]; 3.37% in experiment [4]; -0.937% in experiment [5].

Consider `O=C(OC1CN2CCC1CC2)N1CCc2ccccc2C1c1ccccc1` (stereo not given), for which the activity change, negative = inhibition was 3.89% in experiment [1]; 12.3% in experiment [2]; 5.45% in experiment [3]; -21% in experiment [4]; 0.609% in experiment [5].

`CCCn1c(=O)c2ccc(C(=O)NC3CCCCC3)cc2n2c(=O)n(CC(=O)NC(C)CC)nc12` (stereo not given): the activity change, negative = inhibition was 7.5% in experiment [1]; 2.16% in experiment [2]; 2.34% in experiment [3]; 7.33% in experiment [4]; 7.2% in experiment [5].

Consider `O=C(Cn1ccc2cc(S(=O)(=O)N3CCCC3)ccc21)NCc1cccs1`, for which the activity change, negative = inhibition was -3.53% in experiment [1]; -2.23% in experiment [2]; 0.939% in experiment [3]; -6% in experiment [4]; -2.48% in experiment [5].

As to `Clc1ccc(Cn2c(Cc3ccccc3)nc3ccccc32)cc1`, the activity change, negative = inhibition in experiment [1] is -2.9%; in experiment [2], -12.4%; in experiment [3], -3%; in experiment [4], -66.8%; in experiment [5], -16.8%.

Take `Cc1ccc(NC(=O)Cn2nc3n(CC(C)C)c(=O)c4ccccc4n3c2=O)c(Cl)c1`: the activity change, negative = inhibition is 0.568% in experiment [1]; 0.703% in experiment [2]; 1.26% in experiment [3]; -4.98% in experiment [4]; -4.91% in experiment [5].
